{
  "source": "PubChem BioAssay AID1460",
  "about": "(National Center for Advancing Translational Sciences (NCATS), 2008)",
  "note": "Hit rate of the full screen: of about 270,000 compounds, about 5,800 (2.1%) were called active. The inconclusive results got no clear call from the source; some entries with a clear call stand among them for comparison. The call rests on the fitted dose curve; in most records, active means well fitted inhibition curve with a large enough effect; inconclusive means small, poorly fitted or top-dose-only effect; inactive means flat fitted curve, though single readings scatter. A potency beside an inconclusive call is a rough fit, not a confirmed value. On the % scale 0 is the no-effect control and ±100 the full control effect; potency means the concentration at half of the fitted maximal effect; tags describe the fitted curve by direction and shape.",
  "data": [
    {"molecular_target": "Microtubule-associated protein tau (Homo sapiens) (UniProt P10636)", "sequence (P10636 whole entry, looked up, the tested form may be a part)": "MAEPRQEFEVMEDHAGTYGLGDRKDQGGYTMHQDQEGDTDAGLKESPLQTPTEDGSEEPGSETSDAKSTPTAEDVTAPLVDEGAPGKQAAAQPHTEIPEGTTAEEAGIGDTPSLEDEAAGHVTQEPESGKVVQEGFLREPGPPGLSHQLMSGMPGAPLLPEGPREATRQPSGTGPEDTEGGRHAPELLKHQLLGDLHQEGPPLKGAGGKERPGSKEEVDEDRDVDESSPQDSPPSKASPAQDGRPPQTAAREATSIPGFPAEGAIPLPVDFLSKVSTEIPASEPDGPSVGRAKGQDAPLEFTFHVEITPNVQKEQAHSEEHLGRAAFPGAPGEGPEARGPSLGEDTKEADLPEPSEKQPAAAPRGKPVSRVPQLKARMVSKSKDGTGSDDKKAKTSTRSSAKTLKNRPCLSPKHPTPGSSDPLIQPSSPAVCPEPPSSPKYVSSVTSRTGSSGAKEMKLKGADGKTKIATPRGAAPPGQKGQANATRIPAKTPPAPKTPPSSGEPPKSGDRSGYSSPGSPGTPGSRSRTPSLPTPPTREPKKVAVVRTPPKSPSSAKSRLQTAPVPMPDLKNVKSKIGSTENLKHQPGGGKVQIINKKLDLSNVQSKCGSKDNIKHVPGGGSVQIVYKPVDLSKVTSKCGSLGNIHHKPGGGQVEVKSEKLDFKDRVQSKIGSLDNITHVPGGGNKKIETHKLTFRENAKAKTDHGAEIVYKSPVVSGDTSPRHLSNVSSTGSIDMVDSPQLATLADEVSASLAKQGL", "test": "qHTS for Inhibitors of Tau Fibril Formation, Thioflavin T Binding; further: nearly all actives have a fitted effect of over 55% in size", "settings": "recombinant tau K18 P301L (four-repeat tau fragment), heparin-induced fibrillization, ThT fluorescence; series mostly up to 57.4 µM; activity, negative = inhibition: at the top concentration", "outline": "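Heparin-induced fibrillization of the P301L-mutant K18 repeat-domain fragment of human tau was followed by ThT binding in quantitative high-throughput format.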", "values": [
      {"smiles": "Cc1ccnc2nc(C(=O)OCC(=O)c3c[nH]c4ccccc34)nn12", "Potency": "inconclusive: 39.8 µM [inhibitor, single point]"},
      {"smiles": "CN(c1ccccc1)S(=O)(=O)c1ccc(Cl)nc1", "activity, negative = inhibition": "inactive: -0.576%"},
      {"smiles": "Cn1nnc(NC(=O)/C=C/c2ccco2)n1", "activity, negative = inhibition": "inactive: -15.8%"},
      {"smiles": "O=C(COC(=O)CCc1nc2ccccc2s1)Nc1ncc(Cl)cc1Cl", "Potency": "inconclusive: 8.91 µM [inhibitor, full curve, poor fit]"},
      {"smiles": "CCC(=O)N1CCc2cc(Br)cc(S(=O)(=O)N3CCN(c4ccccc4OC)CC3)c21", "activity, negative = inhibition": "inactive: 0.639%"},
      {"smiles": "O=C(Nc1cnn(Cc2ccc(Cl)cc2)c1)c1ccc([N+](=O)[O-])cc1", "Potency": "inconclusive: 28.2 µM [inhibitor, partial curve]"},
      {"smiles": "COc1ccc(NC(=S)NCCCCCC(=O)C[N+](=O)[O-])cc1", "Potency": "inconclusive: 28.2 µM [inhibitor, partial curve]"},
      {"smiles": "CCCSC1=N/C(=C\\c2ccc3c(c2)OCO3)C(=O)S1", "Potency": "inconclusive: 1.58 µM [inhibitor, partial curve, poor fit]"},
      {"smiles": "CC1CCN(S(=O)(=O)c2ccc3c(c2)N(CC(=O)NCCc2ccccc2)C(=O)CO3)CC1", "activity, negative = inhibition": "inactive: -3.46%"},
      {"smiles": "Cc1cccc(NC(=O)N2CCC(n3nnc4cc(C)ccc43)CC2)c1", "Potency": "inconclusive: 15.8 µM [inhibitor, partial curve]"},
      {"smiles": "CC(C)CC(COCc1cccc(C(F)(F)F)c1)N1CCN(C(=O)c2cccc(C(F)(F)F)c2)CCC1=O", "note": "(centres undefined)", "Potency": "inconclusive: 17.8 µM [inhibitor, partial curve, poor fit]"},
      {"smiles": "C=CCNC(=S)Nc1sc2c(c1C(=O)OCC)CC(C)(CC)OC2", "note": "(centres undefined)", "activity, negative = inhibition": "inactive: -2.35%"},
      {"smiles": "COc1ccc(Nc2nc3ccccc3s2)cc1", "activity, negative = inhibition": "inactive: 12.6%"},
      {"smiles": "COc1cc(/C=N/n2cnnc2)ccc1OC(=O)c1ccco1", "Potency": "inconclusive: 12.6 µM [inhibitor, partial curve]"},
      {"smiles": "COc1ccc(C2=NNC(=Nc3cc(S(=O)(=O)N(C)C)ccc3C)SC2)c(OC)c1", "Potency": "inconclusive: 5.62 µM [inhibitor, full curve, poor fit]"},
      {"smiles": "O=C(Nc1ccc(-n2nncc2-c2ccco2)cc1)c1cc2ccccc2oc1=O", "Potency": "inconclusive: 31.6 µM [inhibitor, partial curve, poor fit]"},
      {"smiles": "C#CCn1c(=NC(=O)c2ccc(Cl)s2)sc2cccc(OC)c21", "Potency": "inconclusive: 2.82 µM [inhibitor, full curve]"},
      {"smiles": "O=C1CC(/C=C/c2ccncc2)=Nc2ccccc2N1", "Potency": "inconclusive: 28.2 µM [inhibitor, partial curve]"},
      {"smiles": "O=c1cc(/N=C/c2coc3cc(Br)ccc3c2=O)[nH]c(=S)[nH]1", "Potency": "inconclusive: 39.8 µM [inhibitor, single point]"}
    ]}
  ]
}
